Measured values from ChEMBL document CHEMBL4888484, “Replenishing the malaria drug discovery pipeline: Screening and hit evaluation of the MMV Hit Generation Library 1 (HGL1) against asexual blood stage Plasmodium falciparum ,using a nano luciferase reporter read-out” (2022).
Screen size: about 150,000 compounds; about 540 (0.36%) showed an effect of 50% or more. Some of the results follow.

Test system: Plasmodium falciparum
Assay: Primary screen in NF54 nanoGlo assay, in single point, at 2uM, 72h; a lower Z score goes with more inhibition
Format: functional, Erythrocyte
Details: timepoint 72 hour

Structure (SMILES) | % Inhibition [%] | Z score
CCC(C(=O)O)N1CCCC(Nc2cc(OC)cc(OC)c2)C1 (stereo not drawn) | 0 | -0.01
Cc1cc(C)n(CC(=O)N2CCC[C@H](C(=O)c3ccc(Oc4ccccc4)cc3)C2)n1 | 2 | -0.3
FC(F)(F)c1cnc(Nc2cnccn2)c(Cl)c1 | -2 | 0.26
COc1cc(COc2cccc(-c3cn(C)cn3)c2)cc(OC)c1 | 0 | 0.03
COc1ccc2c(c1)CCCN(C(=O)c1c(C)cnn1C)C2 | -12 | 1.49
O=C1Cc2ccccc2N1CCNS(=O)(=O)Cc1cc(Cl)ccc1F | -3 | 0.48
Cc1cccc(NC(=O)c2cc(N3CCCC3)ncn2)n1 | -11 | 2.14
Cc1nnsc1CNC(=O)c1ccc(S(=O)(=O)NC2CC2)cc1 | -3 | 0.23
O=C(O)[C@@H]1CCCCN1Cc1csc2ccccc12 | -5 | 0.67
NC(=O)Cc1cccc(NC(=O)N(CCC2=CCCCC2)CC2CC2)c1 | -5 | 1
CCCOc1ccc(CCNC(=O)N2C[C@H]3C[C@H](O)[C@@H](O)C[C@H]3C2)cc1 | -22 | 2.32
CN(C)c1ncc(CN[C@H]2CC(=O)N(C3CC3)C2)n1C | 5 | -0.55
Cc1ccc(CNC(=O)[C@H]2CCCN(S(=O)(=O)c3ccc4c(c3)NC(=O)CO4)C2)o1 | 3 | -0.45
C=CCOc1ccccc1CN1C[C@@H](n2cnnn2)C[C@H]1C(=O)NCc1ccc(C)cc1 | -10 | 1.72
COC(=O)c1c(F)ccc(NC(=O)CC#N)c1C | -7 | 1.06
C=CCC[C@@H](CN1CCCC1)Oc1ccc(OC)nn1 | 4 | -0.74
COc1ccc(C[C@H]2CCOC3(CCN(C(=O)Nc4ccccc4)CC3)C2)cc1 | -12 | 1.73
O=C(CCC1CCNCC1)NCc1ccc(Br)cc1 | 6 | -0.87
COc1ccc(Nc2nnc(-c3ccc(NC(=O)C(=O)NCCCn4ccnc4)cc3)s2)cc1 | 66 | -7.06
Cc1nc(-c2csc(S(=O)(=O)N3CCC[C@H](C(=O)Nc4ccc(C)c(F)c4)C3)c2)no1 | -9 | 1.04
O=C(NC1CCCCC1)c1c(-c2ccccc2)n(Cc2cccs2)c(=O)n1CCN1CCOCC1 | -8 | 0.93

Structure (SMILES) | % Inhibition [%] | Z score
Cc1n[nH]c(CNC(=O)[C@H]2CCC(=O)N(c3ccc(C)c(C)c3)C2)n1 | -1 | 0.22
CC(=O)Nc1ccc(F)c(C(=O)N2CCn3c(Cc4ccccc4)nnc3C2)c1 | 5 | -0.91
O=C(c1cccc(-n2cncn2)c1)N(C[C@H]1CCCO1)C1CCCC1 | -18 | 2.77
CCN(Cc1nc2ccccc2c(=O)[nH]1)C(=O)c1ccco1 | -1 | 0.14
CCn1cc(CN2CCc3nnc(Cc4cccnc4)n3CC2)cc1C#N | -4 | 0.57
Clc1ccc(NC[C@@H]2CCCO2)nc1 | 1 | -0.09
O=C(NCC1(c2cccc(F)c2)CCCCC1)C1CCNCC1 | -7 | 0.64
CCc1nc(NCC(C)(C)S(C)(=O)=O)c2ccsc2n1 | -3 | 0.29
CC1(C)CC(=O)N(C[C@H]2CCCO2)C1=O | -4 | 0.47
COc1ccc(C)cc1S(=O)(=O)N1CCCC[C@H]1c1ccnn1C | -7 | 0.87
COc1ccc(C(OC[C@@H](O)CN(C)C2CCCCC2)c2ccc(OC)cc2)cc1 | -8 | 1.31
COc1cccc(C(=O)N2CC(S(=O)(=O)Nc3ccccc3)C2)n1 | -6 | 0.54
CC1CCCN(CCOC(C)(C)C)C1CO (stereo not drawn) | -6 | 0.88
Cc1nnc(CN(C)[C@H](CO)Cc2ccccc2)s1 | 19 | -2.39
COCc1cc(NCc2cncn2CC(C)C)ncn1 | -7 | 1.33
Cc1nc(N2CCOCC2)ccc1NC(=O)c1cn(-c2ccc(F)cc2)nn1 | -9 | 0.96
O=C(NCc1ccc(N2CCCC2=O)cc1)Nc1ccc(Cl)c(Cl)c1 | 2 | -0.31
COc1ccc2c(c1)OC[C@]1(CO)CN(Cc3c(F)cccc3Cl)C[C@H]21 | -9 | 1.32
CC(NC(=O)NC1CCCNC1=O)c1ccc(N2CCOCC2)cc1 (stereo not drawn) | -1 | 0.14
CCN(C(C)=O)c1nc2ccccc2n(CC(=O)Nc2ccccc2C(F)(F)F)c1=O | -7 | 1.14
O=C1[C@@H]2C[C@@H](CN2C2CCCC2)Oc2ccccc2N1Cc1ccccc1 | 17 | -1.93

Structure (SMILES) | % Inhibition [%] | Z score
Cc1cccc(-c2ncc(C(=O)N3CCN(C4CCCCC4)CC3)c(O)n2)c1 | -15 | 2.97
O=C(c1cnn(-c2ccccc2)n1)N1CCC1 | -5 | 0.98
C[C@H](O)C(=O)NC1CC(Cl)(Cl)C1 | -20 | 2.03
Cc1cn2ccc(C(=O)NC(C)(C)[C@H](O)C(F)(F)F)cc2n1 | -7 | 1.25
CN1CCCN(C(=O)C[C@H]2COCCN2Cc2cccc3nonc23)CC1 | -8 | 1.05
C[C@H](c1ccccc1)n1cnc2c(cnc(=O)n2C)c1=O | -12 | 1.64
Cc1cc(C#N)nc(N2C[C@H](c3ccccc3)C3(CCC3)C2)n1 | -22 | 2.16
CN(C)c1cc(NC(=O)N2CCC3(CC2)C[C@H](O)CNC3=O)ccn1 | -2 | 0.21
O=C(OC1CN(c2nc3ccccc3s2)C1)C1(c2ccccc2)CCOCC1 | -13 | 1.46
CC1CC(CN2CCC(n3c(=O)[nH]c4cccnc43)CC2)CCO1 (stereo not drawn) | -7 | 0.82
Cc1nc(C(=O)Nc2ccc(O[C@H]3CCOC3)cc2)nn1-c1ccccc1Cl | -17 | 2.61
CC[C@H]1CCCCN1CCNC(=O)CCCn1ccnc1 | -13 | 1.08
Cc1c[nH]c(C(=O)NC[C@H]2CC[C@H](CO)CC2)n1 | 2 | -0.4
Cc1nc(C)c(C)c(N(C)CCc2c[nH]cn2)n1 | -5 | 0.56
Cc1ccc2c(c1)c1c(n2C[C@@H](O)Cn2ccnc2)C(=O)CCC1 | -3 | 0.38
Cc1nc(N(C)C)sc1CN1CCC(O)(C(F)(F)F)CC1 | -7 | 0.91
Cc1ccc(-c2cc(C(=O)Nc3c(C(=O)c4ccccc4)oc4ccccc34)n[nH]2)c(O)c1C | -2 | 0.28
Cc1nc(S(C)(=O)=O)nc2ccc(C(C)C)cc12 | -9 | 1.21
COC(=O)c1cccc(NC(=O)Nc2ccccc2)c1CN1CCN(c2ccccc2)CC1 | -8 | 1.17
CC(NC(=O)C(C)S(C)(=O)=O)c1ccc(-c2cccnc2)cc1 (stereo not drawn) | -8 | 0.8
Cc1ccnc(O)c1C(=O)Nc1cc(-c2nccn2C)n[nH]1 | -7 | 1.39

Structure (SMILES) | % Inhibition [%] | Z score
COc1ccc(N2C(=O)[C@@H]3[C@H](Cc4ccccc4)N[C@]4(C(=O)Nc5ccccc54)[C@@H]3C2=O)cc1 | 5 | -0.84
Cc1cc(O[C@H]2CCN(C(=O)Nc3ccc(C)c(C)c3)C2)nc(C)n1 | -8 | 1.19
O=C(NC(c1ccccc1)c1ccccc1)c1cn(CC2CCCCC2)nn1 | 3 | -0.41
O=C(Cn1cccn1)N1CC(O)CC1c1ccc(C(F)(F)F)cc1 (stereo not drawn) | -11 | 1.25
Cc1cn(C(C)c2ccccc2)nc1NC(=O)N1CCCC(O)C1 (stereo not drawn) | 10 | -1.23
Cc1cc(C)c(C)c(OCc2nc(CN(C)C(=O)c3cccs3)cs2)c1 | -4 | 0.56
COc1cccc(C(=O)N2CCC(CN3C[C@@H](C(=O)N4CCOCC4)CC3=O)CC2)c1C | -11 | 1.41
COc1ccccc1N1CCN(c2nccn3nc(-c4ccccc4C)cc23)CC1 | -1 | 0.11
C[C@@H]1COCCN(C(=O)Nc2ccccc2N2CCCC2=O)C1 | -2 | 0.38
O=C(c1cccs1)N1CCC[C@H](Nc2ncnc3c2CCNCC3)C1 | -3 | 0.44
O=C(CNC1CC(c2ccccc2)C1)NCc1ccco1 (stereo not drawn) | -8 | 1.01
C#CCN(Cc1ccco1)C(=O)Cc1csc(-c2nnc[nH]2)n1 | -7 | 1.04
Cc1ccc(NC(=O)Cn2nc(N3CCOCC3)c3ccccc3c2=O)cc1 | -4 | 0.65
COc1cccc([C@@H]2CC(=O)c3c(nc4c(cnn4-c4ccc(C)cc4)c3N)C2)c1 | -10 | 1.27
Cc1ccc(-c2cc(CN3CCOCC3)[nH]n2)o1 | 1 | -0.2
Cc1ccc(C#N)c(N2C[C@@H]3OC(=O)N(CCc4cccc(Cl)c4)[C@@H]3C2)n1 | -9 | 1
Cc1nsc(C)c1-c1noc(CC2CC(F)(F)C2)n1 | -11 | 1.11
COC(=O)N[C@@H](C)C(=O)NCc1ccc2c(c1)nc(C)n2C | -12 | 1.69
Cc1ccc2[nH]c(-c3ccccc3NC(=O)CC3CCCC3)nc2c1 | -6 | 0.79
COCCNc1nc(-c2ccc(F)cc2F)cc(-c2c(C)noc2C)n1 | 5 | -0.92
CC1(C)CC(N2C(=O)CCC2CCNCc2cc3c(cc2Cl)OCO3)CCO1 (stereo not drawn) | -5 | 0.69
